Source: the RNAGym collection of RNA variant scans (doi:10.7554/elife.90254)
Read counts are not given, so values of variants with three or more changes are uncertain.

B1: LINE1-mini (parent)
chain: GGCAGAGCUCAACACAGCGUGGCAAAGUGGCUGUGGCUAGACUGCC

Variants of: B1
Experiment: self-cleavage, relative activity (ratio to wild type); higher = more cleavage; in vitro, sequencing; the parent is a self-cleaving ribozyme
With G19C A26U G29C C31G the self-cleavage was 0.47. With G1C G21U C23U the self-cleavage was 0.19. For U20G G21U G29U, the self-cleavage was 0.26. G2U U28A U34C C37A gave a self-cleavage of 0.02. For A4G C13U U28C, the self-cleavage was 0.06. Variant A11U A26U G33C has a self-cleavage of 0.02. Variant A14C G30U C37U has a self-cleavage of 0.05. In the case of G1U G2C A12U, the self-cleavage is reported as 0.01. G5U A24C C42A gave a self-cleavage of 0.05. G1U C23U U34C showed a self-cleavage of 0.1. Work on G2A C3G G29A yielded a self-cleavage of 0.06. Work on A11U A26C A39C yielded a self-cleavage of 0. G2U G7A A16U U32G C42A showed a self-cleavage of 0.16. With G1C A25G A26U C42U the self-cleavage was 0.03. In the case of A4U C13A A25U A41U C42U, the self-cleavage is reported as 0.02. Variant G1A A4U C8G has a self-cleavage of 0.07. With C3U A4U U9G G19U U32C the self-cleavage was 0.03. G1C A11U C13A G22C U28C A41G showed a self-cleavage of 0. Variant C15U G21U A41U has a self-cleavage of 0.72. Work on G2U A4G G5U G21C C46U yielded a self-cleavage of 0.02. Variant A4G C23A G27A U32A G33U has a self-cleavage of 0.56. With C3U A6U A14U the self-cleavage was 0.05. G1U C13G A16G C23A A25U showed a self-cleavage of 0.22. C3G C31A C42G showed a self-cleavage of 0.05. With U9A C15G A26G G29U C42A C46U the self-cleavage was 0.01. For A16C G44A C46G, the self-cleavage was 0.05. With G19A G33A G35U the self-cleavage was 0.06. A14C C15A U20A A24C U38G C46G showed a self-cleavage of 0. In the case of A12C A24U C31U, the self-cleavage is reported as 0.02. In the case of C18U G21A A41C C42U C45A C46U, the self-cleavage is reported as 0.07. For G7U A25U G33C, the self-cleavage was 0.08. Work on G21U G27C A39G U43C yielded a self-cleavage of 0.08. G2A A14C C31A showed a self-cleavage of 0.06. G2U G36U A39G showed a self-cleavage of 0. Variant G2A C3A U20A G21U A25C U32A has a self-cleavage of 0.15. With A26U U38A A41G C42U C46A the self-cleavage was 0.04. Work on G5U C15A A24U A25C U43G yielded a self-cleavage of 0.01. In the case of G1U C3U G5C C10A C18U U20C C46G, the self-cleavage is reported as 0.03. For A6G C15U G17U, the self-cleavage was 0.02. Work on C13G C31U G40U yielded a self-cleavage of 0.01. For C15A A16U G44U, the self-cleavage was 0.01. U20A G21A G35C showed a self-cleavage of 0.25. For A25U C42U C46A, the self-cleavage was 0.01. C8A G19U C31U G36A C37U showed a self-cleavage of 0.08. For A11G G17U G30A, the self-cleavage was 0.05. In the case of C10G G27U A39G A41U, the self-cleavage is reported as 0.01. Variant G21U C42A C45G has a self-cleavage of 0.07. Variant C13A C15G U28C A41G C45U has a self-cleavage of 0.01. A6U C10A G22U showed a self-cleavage of 0.21. G17C G19A G30C showed a self-cleavage of 0.11. Variant A12U G21C U38G C42U has a self-cleavage of 0.02. Variant C15G A25U G40C C45G has a self-cleavage of 0.01. C8A A16G G29U C37U U43G gave a self-cleavage of 0.06. C13A A16U G17C U28G U43C C45A showed a self-cleavage of 0.02. Work on G7A U43G C45A yielded a self-cleavage of 0.09. G1A C10A C18A A26U showed a self-cleavage of 0.14. C8A A14G A16C G30U gave a self-cleavage of 0.12. C10A C13U G19U C46A showed a self-cleavage of 0.03. G2U G27U G35U C37G gave a self-cleavage of 0.02. A6C U34C G44U C46A showed a self-cleavage of 0.05. With U9A G29A G40U the self-cleavage was 0.04. For G1A G30A G44A, the self-cleavage was 2.33. Work on G2C C10A C23G C37A yielded a self-cleavage of 0.01. Work on A4G U38G C46A yielded a self-cleavage of 0.03. Variant C8A U9C G21U C23U has a self-cleavage of 0.26. G5C C8G A12C C23A U28G gave a self-cleavage of 0. In the case of C3G G21C U34C U43G, the self-cleavage is reported as 0.02. G7C C13A A14U C23U gave a self-cleavage of 0.09. With G5C C31A G35A the self-cleavage was 0.03. Work on C8U A14U U28C G30U A39U A41G C46U yielded a self-cleavage of 0.02. For G5U G29C U43C C46G, the self-cleavage was 0.03. With G1U C8A U32G G40A C46A the self-cleavage was 0.08. Work on G35A U38G A39C yielded a self-cleavage of 0. Work on C10A C18A U34C yielded a self-cleavage of 0.03. Work on G7U U34A G35C yielded a self-cleavage of 0.02. Variant G19C A24C G36A G40C has a self-cleavage of 0.07. In the case of A6G U9G A24U, the self-cleavage is reported as 0.12. In the case of C8G G22C G27C, the self-cleavage is reported as 0.04. G5C U20A A24U G36A gave a self-cleavage of 0.02. For G7C C31G G35A, the self-cleavage was 0.37. U9C A11U A12C A16U G19A showed a self-cleavage of 0.02. In the case of G2U A26U G30U C31U, the self-cleavage is reported as 0.02. In the case of C13A G30U U32G G35C, the self-cleavage is reported as 0.07. For A6C A24C C45U, the self-cleavage was 0.08.
